# Data from the supplement of paper PMC11383711.
# The list shows a part of the results. Binding of human antibodies (heavy:light variable regions, tested as scFv in one mRNA-display pool) to influenza hemagglutinin, with or without the stem antibody CR9114 bound first. Score = (mean enrichment − median) / interquartile range of that screen; higher = more enriched, 0 = typical non-binder. Active = above the paper's cut-off per screen: stems 28; unblocked H1 Solomon Islands 5, H1 Michigan 3, H3 5, H5 19, H7 2.85, both B 5; blocked 9, 7, H5 10, H7 10, B Phuket 10, B Lee 11.5. Scores are scaled within each screen and are no affinities; replicates correlate at about 0.6 to 0.9, and antibodies rare in the pool are noisier.
# B1: K77-1E03 (protein)
# chain 1: LVQLQESGPGLVKPSETLSLTCTVSDGSISNYYWSWIRQPPGKGLEWIGYIFYSGSTNYNPSLKSRVSISVDTSKNQFSLKLRSVTAADTAVYYCARRQGWFHNAFDIWGQGTMVIVSS
# chain 2: DIQMTQSPSSLSASVGDRVTITCRASQSIYSYLSWYQQKPGKAPKLLIYAASSLQSGVPSRFSGSGSGTDFTLTISSLQPEDFASYYCQQSYTTPRTFGQGTKLEIK
# B2: W85-1D12 (protein)
# chain 1: QVQLQESGPGLVQPSETLSLTCTVSGGSSSGHYWSWIRQPPGKGLEWMGHVYNSGSTNYNPSLKSRVTISVDTSKSQFSLKLTAVTAADTAVYYCARGAGYDYAWGSYRWNYFDNWGQGTPVTVSS
# chain 2: DIQMTQSPSSLSASVGDRVTITCQASQDISNYLNWYQQKPGKAPRVLIYDASNLETWVPSRFTGRGSGTDFSVSISSLQPEDIATYYCQQYHNFPYTFGQGTNLESK
# B3: AG1-E04 (protein)
# chain 1: VQLVESGGGVVQPGRSLRLSCSASGFTFRSFAMHWVRQAPGRGLEWVAVMWIDGRGKDYADSVKGRFTISRDNSKSTLYLQMNNLRAEDTAVYYCARDQATKGLKPWGQGTLVTVSS
# chain 2: DIQMTQSPSSLSASVGDKITITCRASQSISTYLNWYQQKPGTAPKLLIYAASSLQSGVPSRFSGSGSGTGFTLTISSLQPEDFATYYCQQSYSTPYTFGQGTKVEIK
# B4: 014-10-3F03 (protein)
# chain 1: QVQLVESGGGVVQPGRSLRLSCAASGFTFSNHGMHWVRQAPGKGLEWVAVISFDGRKEYYANSVTGRFTISRDNSKNTLYLQLNSLRPEDTAFYYCAKDSYNGNREGGMDVWGQGTTVTVSS
# chain 2: QSALTQPRSVSGSPGQSVTISCTGTSSDVGYYNYVSWYQQEPGKATKLMIYEVTKRPSGVPDRFSGSKSGNTASLTISGLQGEDEADYYCFSYAGRYTWVFGGGTKLTVL
# B5: W85-3B05 (protein)
# chain 1: EVQLMESGGGVVHPGRSLRLSCAASGFTFSSYAMHWVRQAPGKGLEWVAIISHDGSNKYYADSLKGRFTISRENSRSMVYLHVSSLRTEDTAVYYCARDLCSTSSCYVDHWGQGTLVTVSS
# chain 2: DIQMTQSPSSLSASVGDRVTIICRASQGVSNWLAWYQQKPGKAPKSLIYAASALQSGVPSRFSGSGSGTEFSLTISNLQPEDFATYYCQQYNSYPLTFGGGTKVEIK
# B6: R95-2E07 (protein)
# chain 1: EVQLVESGGGLVQPGGSLRLSCAASGFPFSTYWMYWVRQAPGKGLVSVSRINSDGSGTSYADSVEGRFTISRDNAKNTLYFQMNSLRAEDTAVYYCARRFGSGWTEWYFDLWGRGTLVTVSS
# chain 2: DIQMTQSPSTLSASVGDKVTITCRASQSINRWLAWYQQKPGKAPKLLIYRASSLESGVPSRFSGSGSGTEFTLTISSLQPDDFATYFCQHYEGYSWTFGQGTKVDIK
# B7: 024-10-4C04 (protein)
# chain 1: EVQLVQSGAEVKKPGESLKISCKGSEYSFSNYWIGWVRQMSGKGLEWMGIIYPDDSDTRYSPSFQGQVTISADKSISTAYLQWSSLKASDTAMYYCVRHSDAHSTNPDPPFYFRFAMDVWGQGTTVTVSS
# chain 2: QSVLTQPPSVSGAPGQRVIISCTGNNSNIGAGHDVHWYQQVPGTAPKLLIFGNKNRPSGVPDRFSGSKSGSSASLAITGLQAADEADYYCQSYDNSLSLSHYWVFGGGTKVTVL
# B8: W85-1B04 (protein)
# chain 1: LVQLQQWGAGLLKPSETLSLTCAVYGGSFSGYYWSWIRQPPGKGLEWIGEINHSGSSNYKPSLKSRVAISVDTSKNQFSLKLSSVTAADTAVYYCARGGRDGYNYTPFRAFDIWGQGTMVTVSS
# chain 2: SYELTQPPSVSLSPGQTASITCSGDKLGDKYVCWYQQKPGQSPVLVIYADSKRPSGIPERFSGSNSGNTATLTISGTQAMDEADYYCQAWDTSTAIFGGGTRLTV
# B9: 024-10-4C05 (protein)
# chain 1: QLQLQESGPGLVKPSETLPLICTVSGGAIRFSSYYWGWIRQAPGKGLEWIATIHYSGTAHYNPSLKSRLTISVDTSTNQFSLRLSSVTAADTAVYYCARHRGYCSGGGCFGEVYFDSWGQGALVTVSS
# chain 2: DIQMTQSPSSLSASVGDRVTITCRASQNIRTYLSWYQQKPGGAPKLLIYAASSLQSGVPLRFSGSGSGTDFTLTINGLQPEDFATYYCQQSYTTIVFGGGTKVEIK
# B10: C1-2-2F04 (protein)
# chain 1: VQLVESGGGVVQPGGSLRLSCAASGFIFTDYVMHWLRLTPGKGLEWVAIISFDGSNTYYTDSVKGRFTISRDQSANTLYLLMNSLRPDDTAVYYCVRGQDSSHYFDAWGQGALVTVSS
# chain 2: EIVMTQSPATLSVSPGERATLSCRASQDIGTNLAWYQQKPGLAPRLLIYGVSTRATGIPARFSGSGSETEFTLTISIMQSEDCAVYFCQQYDFWPTFGQGTKVEIK
# B11: 045-09-1F04 (protein)
# chain 1: EVQLVESGGGLVQPGGSLRLSCAGSGFSFSSYSMNWVRQAQGRGLEWVSYISSYSGTIYYADSVKGRFTISRDNAKNSLYLQMNSLTADDTAVYYCARDDDSNDYNQDRYYYYGMDVWGQGTTVTVSS
# chain 2: EIVMTQSPATLSVSPGERATLSCRASQSVSSNLAWYQQKPGQAPRLLIYGASTRATGIPARFSGSGSGTEFTLTISSLQSEDFALYYCQQYDNWPPITFGQGTRLEIK
# B12: antibody 5D03 (protein)
# chain 1: VQLVQSGAEMKKPGESLQISCEGSGYNFNGYWIGWLRQMPGKGLEWMGIIHPSDSDTRYSPSLQGQVTISVDKSISTAYLLWNSLKTSDTAIYYCARRGGANYGLDYWGQGTLVTVSS
# chain 2: DIQMTQSPSSLSASVGDRVTITCRARQTINRYLNWYQQKPGKAPKLLIYAATNLQSGVPSRFSGTGSGTLFTLTISSLQPEDLATYFCQQTYSTLGTFGPGTKVDIK
# Target: Influenza A H1N1 A/Michigan/45/2015 hemagglutinin ectodomain
# Assay: mRNA display binding score; higher = more enriched on the antigen
# Settings: antigen blocked with: 2 µM CR9114 IgG
# Experimental: (§1)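 A pool of natively paired antibodies, displayed as scFv on mRNA, was selected once on antigen-coated beads and sequenced before and after; two replicates.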
row,Binder,mRNA display binding score
1,B1,inactive: -0.165
2,B2,inactive: -0.44
3,B3,inactive: -0.455
4,B4,inactive: 5.94
5,B5,inactive: -0.628
6,B6,inactive: -0.575
7,B7,inactive: 6.78
8,B8,inactive: -0.245
9,B9,inactive: -0.0779
10,B10,inactive: 0.417
11,B11,inactive: -0.21
12,B12,inactive: -0.401

# Same assay, conditions: antigen blocked with: nothing
row,Binder,mRNA display binding score
1,B1,inactive: -0.545
2,B2,inactive: -0.587
3,B3,inactive: -0.588
4,B4,inactive: -0.43
5,B5,inactive: -0.635
6,B6,inactive: -0.44
7,B7,inactive: -0.0715
8,B8,inactive: -0.58
9,B9,inactive: -0.244
10,B10,inactive: 0.0517
11,B11,inactive: -0.208
12,B12,inactive: -0.138

# Target: Influenza A H1N1 A/Solomon Islands/3/2006 hemagglutinin ectodomain
# Assay: as above
# Settings: antigen blocked with: 2 µM CR9114 IgG
# Experimental: as §1
row,Binder,mRNA display binding score
1,B1,inactive: -0.501
2,B2,inactive: -0.525
3,B3,inactive: -0.316
4,B4,inactive: 2.18
5,B5,inactive: -0.729
6,B6,inactive: -0.619
7,B7,inactive: -0.282
8,B8,inactive: -0.0689
9,B9,inactive: 0.0176
10,B10,inactive: -0.524
11,B11,inactive: -0.496
12,B12,inactive: 0.226

# Same assay, conditions: antigen blocked with: nothing
row,Binder,mRNA display binding score
1,B1,inactive: -0.494
2,B2,inactive: -0.541
3,B3,inactive: -0.602
4,B4,inactive: 0.519
5,B5,inactive: -0.468
6,B6,inactive: -0.58
7,B7,inactive: -0.0746
8,B8,inactive: -0.431
9,B9,inactive: -0.164
10,B10,inactive: -0.425
11,B11,inactive: 0.486
12,B12,inactive: -0.236

# Target: Influenza A H3N2 A/Singapore/INFIMH-16-0019/2016 hemagglutinin ectodomain
# Assay: as above
# Settings: antigen blocked with: nothing
# Experimental: as §1
row,Binder,mRNA display binding score
1,B1,inactive: -0.536
2,B2,inactive: -0.205
3,B3,inactive: -0.233
4,B4,inactive: -0.483
5,B5,inactive: -0.244
6,B6,inactive: -0.547
7,B7,inactive: -0.17
8,B8,inactive: 0.323
9,B9,inactive: -0.388
10,B10,inactive: 0.0498
11,B11,inactive: 0.0537
12,B12,inactive: 2.72

# Target: Influenza A H5N1 A/Qinghai/1A/2005 hemagglutinin ectodomain
# Assay: as above
# Settings: antigen blocked with: 2 µM CR9114 IgG
# Experimental: as §1
row,Binder,mRNA display binding score
1,B1,inactive: -0.58
2,B2,inactive: -0.817
3,B3,inactive: -0.576
4,B4,inactive: 2.87
5,B5,inactive: -0.583
6,B6,inactive: -0.651
7,B7,inactive: -0.881
8,B8,inactive: -0.303
9,B9,inactive: -0.426
10,B10,inactive: -0.394
11,B11,inactive: 0.053
12,B12,inactive: -0.455

# Same assay, conditions: antigen blocked with: nothing
row,Binder,mRNA display binding score
1,B1,inactive: -0.482
2,B2,inactive: -0.607
3,B3,inactive: -0.516
4,B4,inactive: 2.94
5,B5,inactive: -0.564
6,B6,inactive: -0.508
7,B7,inactive: -0.265
8,B8,inactive: -0.403
9,B9,inactive: 0.0531
10,B10,inactive: -0.0674
11,B11,inactive: -0.146
12,B12,inactive: -0.345

# Target: Influenza A H7N9 A/Shanghai/2/2013 hemagglutinin ectodomain
# Assay: as above
# Settings: antigen blocked with: 2 µM CR9114 IgG
# Experimental: as §1
row,Binder,mRNA display binding score
1,B1,inactive: -0.739
2,B2,inactive: -0.84
3,B3,inactive: -0.154
4,B4,inactive: 0.609
5,B5,inactive: -0.382
6,B6,inactive: -0.0352
7,B7,inactive: -0.88
8,B8,inactive: -0.142
9,B9,inactive: 0.449
10,B10,inactive: 1.26
11,B11,inactive: 0.159
12,B12,inactive: -0.774

# Same assay, conditions: antigen blocked with: nothing
row,Binder,mRNA display binding score
1,B1,inactive: -0.755
2,B2,inactive: -0.706
3,B3,inactive: -0.659
4,B4,inactive: -0.521
5,B5,inactive: -0.691
6,B6,inactive: -0.536
7,B7,inactive: -0.264
8,B8,inactive: -0.328
9,B9,inactive: -0.298
10,B10,inactive: 0
11,B11,inactive: 0.011
12,B12,inactive: 0.254

# Target: Influenza B/Lee/1940 hemagglutinin ectodomain
# Assay: as above
# Settings: antigen blocked with: 2 µM CR9114 IgG
# Experimental: as §1
row,Binder,mRNA display binding score
1,B1,inactive: 0.536
2,B2,inactive: 0.627
3,B3,inactive: 0.16
4,B4,inactive: -0.826
5,B5,inactive: -0.666
6,B6,inactive: -0.245
7,B7,inactive: -0.104
8,B8,inactive: 0.573
9,B9,inactive: -0.0813
10,B10,inactive: -0.0205
11,B11,inactive: -0.00933
12,B12,inactive: -0.464

# Same assay, conditions: antigen blocked with: nothing
row,Binder,mRNA display binding score
1,B1,inactive: -0.188
2,B2,inactive: 1.96
3,B3,inactive: -0.449
4,B4,inactive: -0.375
5,B5,inactive: -0.263
6,B6,inactive: -0.356
7,B7,inactive: -0.284
8,B8,inactive: -0.433
9,B9,inactive: 0.0709
10,B10,inactive: -0.292
11,B11,inactive: -0.297
12,B12,inactive: 0.0114

# Target: Influenza B/Phuket/3073/2013 hemagglutinin ectodomain
# Assay: as above
# Settings: antigen blocked with: 2 µM CR9114 IgG
# Experimental: as §1
row,Binder,mRNA display binding score
1,B1,inactive: -0.638
2,B2,inactive: -0.624
3,B3,inactive: -0.21
4,B4,inactive: 0.341
5,B5,inactive: -0.272
6,B6,inactive: -0.565
7,B7,inactive: -0.607
8,B8,inactive: -0.258
9,B9,inactive: -0.0456
10,B10,inactive: -0.461
11,B11,inactive: -0.17
12,B12,inactive: -0.112

# Same assay, conditions: antigen blocked with: nothing
row,Binder,mRNA display binding score
1,B1,inactive: -0.288
2,B2,inactive: -0.483
3,B3,inactive: -0.383
4,B4,inactive: -0.206
5,B5,inactive: -0.383
6,B6,inactive: -0.403
7,B7,inactive: 0.311
8,B8,inactive: -0.247
9,B9,inactive: 0.285
10,B10,inactive: 0.44
11,B11,inactive: -0.243
12,B12,inactive: -0.0872
